{
  "source": "the supplement of paper PMC8728848",
  "binders": {"B1": {"name": "Cohesin-marm-DC-ASGPR-CRD (protein)", "chain": "LDITSHHHHHHDDLDAVRIKVDTVNAKPGDTVRIPVRFSGIPSKGIANCDFVYSYDPNVLEIIEIEPGDIIVDPNPDKSFDTAVYPDRKIIVFLFAEDSGTGAYAITKDGVFATIVAKVKEGAPNGLSVIKFVEVGGFANNDLVEQKTQFFDGGVNVGDTTEPATPTTPVTTPTTTDDLDAASCPINWVEHQGSCYWFSRSGKTWPEAERYCQLENTHLVVINSREEQNFVQAHLGSAYTWMGLSDPEGVWKWVDGTDYSSGFQNWKPGQPDDWQGHGLGGGEDCAHFHPDGRWNDDVCQRSYHWVCEAGLTQASQDSH"}},
  "assay_in_all_cases": "glycan array binding signal (z-score within array); higher = stronger binding",
  "conditions_in_all_cases": "glycan notation: IUPAC condensed, linker removed",
  "key": {"[1]": {"target": "Neu5Ac(a2-6)Gal(b1-4)GlcNAc(b1-2)Man(a1-3)[Man(a1-6)]Man(b1-4)GlcNAc(b1-4)GlcNAc", "how_it_was_run": "(§1)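 Glycan array binding is given as a within-array Z-score, which can be read as non-binding when negative. The arrays, 3228 of them, came from the Consortium for Functional Glycomics database and were retained only where the protein sequence was available. Z-scores were averaged across arrays of the same protein sequence at different concentrations or buffers and across linkers.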"}, "[2]": {"target": "Neu5Ac(a2-6)Gal(b1-4)GlcNAc(b1-2)Man(a1-3)[Neu5Ac(a2-3)Gal(b1-4)GlcNAc(b1-2)Man(a1-6)]Man(b1-4)GlcNAc(b1-4)GlcNAc", "how_it_was_run": "as §1"}, "[3]": {"target": "Neu5Ac(a2-6)Gal(b1-4)GlcNAc(b1-2)Man(a1-3)[Neu5Ac(a2-6)Gal(b1-4)GlcNAc(b1-2)Man(a1-6)]Man(b1-4)GlcNAc(b1-4)GlcNAc", "how_it_was_run": "as §1"}, "[4]": {"target": "Neu5Ac(a2-6)Gal(b1-4)GlcNAc(b1-2)Man(a1-3)[Neu5Ac(a2-6)Gal(b1-4)GlcNAc(b1-2)Man(a1-6)]Man(b1-4)GlcNAc(b1-4)[Fuc(a1-6)]GlcNAc", "how_it_was_run": "as §1"}, "[5]": {"target": "Neu5Ac(a2-6)Gal(b1-4)GlcNAc(b1-2)Man(a1-6)Man(b1-4)GlcNAc(b1-4)GlcNAc", "how_it_was_run": "as §1"}, "[6]": {"target": "Neu5Ac(a2-6)Gal(b1-4)GlcNAc(b1-2)Man(a1-6)[Gal(b1-4)GlcNAc(b1-2)Man(a1-3)]Man(b1-4)GlcNAc(b1-4)GlcNAc", "how_it_was_run": "as §1"}, "[7]": {"target": "Neu5Ac(a2-6)Gal(b1-4)GlcNAc(b1-2)Man(a1-6)[GlcNAc(b1-2)Man(a1-3)]Man(b1-4)GlcNAc(b1-4)GlcNAc", "how_it_was_run": "as §1"}, "[8]": {"target": "Neu5Ac(a2-6)Gal(b1-4)GlcNAc(b1-2)Man(a1-6)[Man(a1-3)]Man(b1-4)GlcNAc(b1-4)GlcNAc", "how_it_was_run": "as §1"}, "[9]": {"target": "Neu5Ac(a2-6)Gal(b1-4)GlcNAc(b1-2)[Neu5Ac(a2-6)Gal(b1-4)GlcNAc(b1-4)]Man(a1-3)[GlcNAc(b1-4)][Neu5Ac(a2-6)Gal(b1-4)GlcNAc(b1-2)[Neu5Ac(a2-6)Gal(b1-4)GlcNAc(b1-6)]Man(a1-6)]Man(b1-4)GlcNAc(b1-4)GlcNAc", "how_it_was_run": "as §1"}, "[10]": {"target": "Neu5Ac(a2-6)Gal(b1-4)GlcNAc(b1-2)[Neu5Ac(a2-6)Gal(b1-4)GlcNAc(b1-4)]Man(a1-3)[GlcNAc(b1-4)][Neu5Ac(a2-6)Gal(b1-4)GlcNAc(b1-4)Man(a1-6)]Man(b1-4)GlcNAc(b1-4)GlcNAc", "how_it_was_run": "as §1"}, "[11]": {"target": "Neu5Ac(a2-6)Gal(b1-4)GlcNAc(b1-2)[Neu5Ac(a2-6)Gal(b1-4)GlcNAc(b1-6)]Man(a1-6)[Neu5Ac(a2-6)Gal(b1-4)GlcNAc(b1-2)Man(a1-3)][GlcNAc(b1-4)]Man(b1-4)GlcNAc(b1-4)GlcNAc", "how_it_was_run": "as §1"}, "[12]": {"target": "Neu5Ac(a2-6)Gal(b1-4)GlcNAc(b1-3)Gal(b1-3)GlcNAc", "how_it_was_run": "as §1"}, "[13]": {"target": "Neu5Ac(a2-6)Gal(b1-4)GlcNAc(b1-3)Gal(b1-4)GlcNAc", "how_it_was_run": "as §1"}, "[14]": {"target": "Neu5Ac(a2-6)Gal(b1-4)GlcNAc(b1-3)Gal(b1-4)GlcNAc(b1-2)Man(a1-3)[Neu5Ac(a2-6)Gal(b1-4)GlcNAc(b1-3)Gal(b1-4)GlcNAc(b1-2)Man(a1-6)]GalNAc", "how_it_was_run": "as §1"}, "[15]": {"target": "Neu5Ac(a2-6)Gal(b1-4)GlcNAc(b1-3)Gal(b1-4)GlcNAc(b1-3)Gal(b1-4)GlcNAc", "how_it_was_run": "as §1"}, "[16]": {"target": "Neu5Ac(a2-6)Gal(b1-4)GlcNAc(b1-3)Gal(b1-4)GlcNAc(b1-3)Gal(b1-4)GlcNAc(b1-2)Man(a1-3)[Neu5Ac(a2-6)Gal(b1-4)GlcNAc(b1-3)Gal(b1-4)GlcNAc(b1-3)Gal(b1-4)GlcNAc(b1-2)Man(a1-6)]GalNAc", "how_it_was_run": "as §1"}, "[17]": {"target": "Neu5Ac(a2-6)Gal(b1-4)GlcNAc(b1-3)Gal(b1-4)GlcNAc(b1-3)GalNAc", "how_it_was_run": "as §1"}, "[18]": {"target": "Neu5Ac(a2-6)Gal(b1-4)GlcNAc(b1-3)Gal(b1-4)GlcNAc(b1-3)[Neu5Ac(a2-6)Gal(b1-4)GlcNAc(b1-3)Gal(b1-4)GlcNAc(b1-6)]GalNAc", "how_it_was_run": "as §1"}, "[19]": {"target": "Neu5Ac(a2-6)Gal(b1-4)GlcNAc(b1-3)Gal(b1-4)GlcNAc(b1-6)[Gal(b1-3)]GalNAc", "how_it_was_run": "as §1"}, "[20]": {"target": "Neu5Ac(a2-6)Gal(b1-4)GlcNAc(b1-3)Gal(b1-4)[Fuc(a1-3)]GlcNAc(b1-3)Gal(b1-4)[Fuc(a1-3)]GlcNAc", "how_it_was_run": "as §1"}, "[21]": {"target": "Neu5Ac(a2-6)Gal(b1-4)GlcNAc(b1-3)GalNAc", "how_it_was_run": "as §1"}, "[22]": {"target": "Neu5Ac(a2-6)Gal(b1-4)GlcNAc(b1-3)[Neu5Ac(a2-6)Gal(b1-4)GlcNAc(b1-6)]GalNAc", "how_it_was_run": "as §1"}, "[23]": {"target": "Neu5Ac(a2-6)Gal(b1-4)GlcNAc(b1-6)GalNAc", "how_it_was_run": "as §1"}, "[24]": {"target": "Neu5Ac(a2-6)Gal(b1-4)GlcNAc(b1-6)[Gal(b1-3)GlcNAc(b1-3)]Gal(b1-4)Glc", "how_it_was_run": "as §1"}, "[25]": {"target": "Neu5Ac(a2-6)Gal(b1-4)GlcNAc(b1-6)[Gal(b1-3)]GalNAc", "how_it_was_run": "as §1"}, "[26]": {"target": "Neu5Ac(a2-6)Gal(b1-4)GlcNAc6S", "how_it_was_run": "as §1"}, "Neu5Ac(a2-6)GalNAc": {"target": "Neu5Ac(a2-6)GalNAc", "how_it_was_run": "as §1"}, "[27]": {"target": "Neu5Ac(a2-6)GalNAc(b1-4)GlcNAc", "how_it_was_run": "as §1"}, "[28]": {"target": "Neu5Ac(a2-6)GalNAc(b1-4)GlcNAc6S", "how_it_was_run": "as §1"}, "[29]": {"target": "Neu5Ac(a2-6)GlcNAc(b1-4)GlcNAc", "how_it_was_run": "as §1"}, "[30]": {"target": "Neu5Ac(a2-6)GlcNAc(b1-4)GlcNAc(b1-4)GlcNAc", "how_it_was_run": "as §1"}},
  "note": "The other results are listed elsewhere or left out.",
  "data": [
    {"binder": "B1", "values": [
      {"measurement": "glycan array binding signal (z-score)", "setting": "[1]", "value": -0.446},
      {"measurement": "glycan array binding signal (z-score)", "setting": "[2]", "value": -0.43},
      {"measurement": "glycan array binding signal (z-score)", "setting": "[3]", "value": -0.424},
      {"measurement": "glycan array binding signal (z-score)", "setting": "[4]", "value": -0.451},
      {"measurement": "glycan array binding signal (z-score)", "setting": "[5]", "value": -0.446},
      {"measurement": "glycan array binding signal (z-score)", "setting": "[6]", "value": -0.425},
      {"measurement": "glycan array binding signal (z-score)", "setting": "[7]", "value": -0.456},
      {"measurement": "glycan array binding signal (z-score)", "setting": "[8]", "value": -0.447},
      {"measurement": "glycan array binding signal (z-score)", "setting": "[9]", "value": -0.426},
      {"measurement": "glycan array binding signal (z-score)", "setting": "[10]", "value": -0.368},
      {"measurement": "glycan array binding signal (z-score)", "setting": "[11]", "value": -0.442},
      {"measurement": "glycan array binding signal (z-score)", "setting": "[12]", "value": -0.41},
      {"measurement": "glycan array binding signal (z-score)", "setting": "[13]", "value": -0.46},
      {"measurement": "glycan array binding signal (z-score)", "setting": "[14]", "value": -0.038},
      {"measurement": "glycan array binding signal (z-score)", "setting": "[15]", "value": -0.384},
      {"measurement": "glycan array binding signal (z-score)", "setting": "[16]", "value": 0.072},
      {"measurement": "glycan array binding signal (z-score)", "setting": "[17]", "value": -0.378},
      {"measurement": "glycan array binding signal (z-score)", "setting": "[18]", "value": -0.299},
      {"measurement": "glycan array binding signal (z-score)", "setting": "[19]", "value": -0.4},
      {"measurement": "glycan array binding signal (z-score)", "setting": "[20]", "value": -0.346},
      {"measurement": "glycan array binding signal (z-score)", "setting": "[21]", "value": 2.19},
      {"measurement": "glycan array binding signal (z-score)", "setting": "[22]", "value": -0.233},
      {"measurement": "glycan array binding signal (z-score)", "setting": "[23]", "value": -0.314},
      {"measurement": "glycan array binding signal (z-score)", "setting": "[24]", "value": -0.462},
      {"measurement": "glycan array binding signal (z-score)", "setting": "[25]", "value": -0.371},
      {"measurement": "glycan array binding signal (z-score)", "setting": "[26]", "value": -0.451},
      {"measurement": "glycan array binding signal (z-score)", "setting": "Neu5Ac(a2-6)GalNAc", "value": 3.16},
      {"measurement": "glycan array binding signal (z-score)", "setting": "[27]", "value": 2.67},
      {"measurement": "glycan array binding signal (z-score)", "setting": "[28]", "value": 2.35},
      {"measurement": "glycan array binding signal (z-score)", "setting": "[29]", "value": -0.444},
      {"measurement": "glycan array binding signal (z-score)", "setting": "[30]", "value": -0.45}
    ]}
  ]
}
